Here are results for 23 molecules from ChEMBL document CHEMBL4888484, “Replenishing the malaria drug discovery pipeline: Screening and hit evaluation of the MMV Hit Generation Library 1 (HGL1) against asexual blood stage Plasmodium falciparum ,using a nano luciferase reporter read-out” (2022).

About 540 (0.36%) of roughly 150,000 compounds showed an effect of 50% or more. The list shows a part of the results.

The test system of the experiment is Plasmodium falciparum. Nature of the experiment: Primary screen in NF54 nanoGlo assay, in single point, at 2uM, 72h; a lower Z score goes with more inhibition. To be noted: timepoint 72 hour. The format is functional, Erythrocyte.
By % Inhibition is commonly meant the change of the read-out against control, counted positive when it falls. Turning to `CCn1cc(C)c(C(=O)O)c1CC(=O)N1CCN(c2ccc(OC)cc2)CC1`, the “% Inhibition” value is on record as 9% and the Z score is -1.25.

`C[C@H](NCc1nccs1)c1ccc(Cl)cc1Cl`: the “% Inhibition” value is given as -12% and the Z score is reported as 1.54.

Regarding `CC(CCc1cccc(F)c1)N(C)C1CCS(=O)(=O)C1` (stereo unspecified), the “% Inhibition” value is given as -7% and the Z score worked out at 1.27.

As to `CCc1ccc(S(=O)(=O)Nc2ccccc2CCc2nc3ccccc3n2CC)cc1`, the “% Inhibition” value was -8% and the Z score is on record as 0.89.

As to `Cn1c(=O)n(C[C@@H]2CCNC(=O)CC2)c2ccccc21`, the “% Inhibition” value was -14% and the Z score is reported as 2.6.

With `Cc1cnc(Cn2cc(-c3cccc(Cl)c3Cl)nn2)cn1`, the “% Inhibition” value is listed as 0% and the Z score is 0.08.

On to `CCCCn1nc(-c2ccc(C(N)=O)cc2)nc1[C@H](C)N1CCCC1=O`, for which the “% Inhibition” value is recorded as -14% and the Z score is reported as 1.62.

`CCOC1CCN([C@@H](C)CNS(=O)(=O)CC)CC1`: the “% Inhibition” value is listed as -6% and the Z score was determined as 1.36.

With `CN(C)C[C@]1(O)CCCN(Cc2c(-c3ccccc3)nc3ncccn23)C1`, the “% Inhibition” value came out at 2% and the Z score was -0.32.

For the molecule `CNS(=O)(=O)[C@H]1CCN(Cc2cn(C)nc2C2CCCC2)C1`, the “% Inhibition” value is listed as -4% and the Z score came out at 0.53.

Turning to `C[C@@H]1CN(Cc2ccc3c(c2)CN(C(=O)c2ccc(Oc4ccccc4)o2)CCO3)C[C@H](C)O1`, the “% Inhibition” value is 7% and the Z score is reported as -0.86.

In the case of `COc1cc2c(cc1OC)CN(C(=O)[C@H](Cc1ccccc1)n1cnnn1)CC2`, the “% Inhibition” value was -13% and the Z score is given as 1.8.

Consider `Cc1ccc(C)c(CN2C(=O)[C@](O)(CC(=O)c3ccccn3)c3ccccc32)c1`, for which the “% Inhibition” value is 15% and the Z score is on record as -2.04.

In the case of `CCCn1nnnc1CN1CC2CCCN(c3nnnn3C)C2C1` (stereo unspecified), the “% Inhibition” value is -5% and the Z score is recorded as 0.69.

Take `CC[C@@H]1Oc2ccc(NC(=O)c3ccccc3OC)cc2CN(Cc2cccc(C(F)(F)F)c2)C1=O`: the “% Inhibition” value is on record as 2% and the Z score is listed as -0.14.

For `O=C(CC1(CC2=Nc3ccccc3S(=O)(=O)N2)CCCC1)NC1CCCCCC1`, the “% Inhibition” value is reported as -6% and the Z score amounted to 0.71.

Consider `CC(C)(N)c1ccc(Cl)c(Cl)c1`, for which the “% Inhibition” value is listed as -9% and the Z score was found to be 1.19.

For `CO[C@@]12CC[C@H](O)C[C@@H]1N(C(=O)c1nc(=O)[nH]c3ccccc13)CC2`, the “% Inhibition” value is recorded as -7% and the Z score turned out to be 0.7.

As for `O=C1CN(C(=O)c2ccc(NC(=O)CCn3ccc4ccc(Cl)cc43)cc2)CCN1`, the “% Inhibition” value is reported as -5% and the Z score turned out to be 0.69.

Regarding `CCc1nnc(CN[C@@H](C)c2ccc(OC(F)(F)F)cc2)n1C`, the “% Inhibition” value is given as -6% and the Z score came to 0.81.

Regarding `CC(C)=CCC[C@H](C)CN1CCCn2nc(CNC(=O)N(C)C)cc2C1`, the “% Inhibition” value is recorded as 0% and the Z score is 0.04.

In the case of `Cc1cc(C)n(C[C@H](C)N2CCN(Cc3ccc(F)cc3)CC2)n1`, the “% Inhibition” value is recorded as -13% and the Z score came to 1.84.

For the molecule `O=C(NCc1cncc(N2CCCC2=O)c1)c1ccccc1Br`, the “% Inhibition” value was -6% and the Z score was determined as 1.04.
